Reference: PubChem BioAssay AID1345083 (National Center for Advancing Translational Sciences (NCATS), 2018)
Screen size: about 94,000 compounds; about 6,200 (6.6%) were called active. The inconclusive results got no clear call from the source; some entries with a clear call stand among them for comparison. Calls come from the whole dose curve; as a rule, active = well fitted inhibition curve with a large enough effect; inconclusive = small, poorly fitted or top-dose-only effect; inactive = flat fitted curve, though single readings scatter. Potencies of inconclusive entries are doubtful fits and often do not repeat.

experiment: Cytotoxic Profiling in HEK 293 Cell Line of Diverse Libraries Using Quantitative High-Throughput Screening; conditions: HEK 293 viability, ATP luminescence (CellTiter-Glo), 48-72 h; series mostly up to 115 µM; note: nearly all actives have a fitted effect of over 60% in size
Summary of the method: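 Luminescence from cellular ATP, measured with CellTiter-Glo, indicates HEK 293 viability. Cells plated at 250 cells/well are treated with compound for 48 or 72 hr at 37 degree Celsius before reagent addition.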
Potency is the fitted concentration of half-maximal effect; tags give direction and shape of the fitted curve.

Structure (SMILES) | Potency
COc1ccc(Cl)cc1-c1ccc2c(c1)C(=O)N1CCN(C(=O)c3cnccn3)C[C@H]1C(=O)N2 | inconclusive: 79.4 µM [inhibitor, partial curve, poor fit]
Cc1ccccc1CN1CCCn2nc(C)c(-c3cccnc3N3CCOCC3)c21 | active: 70.8 µM
COc1ccc(-c2cc(N3CCCC(NC(=O)c4ccc5c(c4)OCO5)C3)n[nH]2)cc1 (configuration not stated) | inconclusive: 44.7 µM [inhibitor, partial curve, poor fit]
O=C(Nc1cccc(F)c1)[C@@H]1C[C@H](c2ccc(F)cc2)N([S+](=O)([O-])C2CC2)C1 | inconclusive: 100 µM [inhibitor, partial curve, poor fit]
Cc1noc(C2CC3(CCN(C(=O)CC4CCCC4)CC3)CN2C)n1 (configuration not stated) | inactive
Cn1cc(CN2CCOCCNC(=O)CC2)c2ccccc21 | inactive
CC(=O)c1cc(CN2CCN(c3nnc(C(F)(F)F)s3)CC2)cs1 | inactive
CCc1nc2c(c(-c3ccc(OC)cc3)n1)CN([S+](=O)([O-])c1c(C)noc1C)CC2 | inactive
O=C(NCc1ccccc1C(F)(F)F)C1CCCN(c2cnn(Cc3ccccc3)c(=O)c2)C1 (configuration not stated) | active: 44.7 µM
CS(=O)(=O)NCCc1ccc(CC2CCN(C(=O)CCC3CCCC3)CC2)cc1 | inconclusive: 8.91 µM [inhibitor, full curve, poor fit]
O=C(NC1CCCC1)N1CCC(C(=O)N2CCCC(c3nc4ccncc4[nH]3)C2)CC1 (configuration not stated) | inconclusive: 39.8 µM [inhibitor, full curve]
CN(C)C[C@@H]1CN(Cc2ccccc2)C[C@H]1NC(=O)C1CC=CC1 | inconclusive: 89.1 µM [inhibitor, single point]
O=C(Nc1cccc(Cl)c1)c1cn2cc(-c3ccc(C(F)(F)F)cc3)sc2n1 | inactive
CN1CCC(Cn2ccc3c(N4CCOCC4)nc(-c4cccc5[nH]ccc45)cc32)CC1 | active: 63.1 µM
Cc1cc(C)cc(NC(=O)N2CCCC(c3noc(COc4ccccc4)n3)C2)c1 (configuration not stated) | inconclusive: 56.2 µM [inhibitor, partial curve, poor fit]
CCc1nncn1C1CCN(S(=O)(=O)c2cccc(OC)c2)CC1 | inactive
Cc1nn(C(=O)CCC(=O)N2CCC(CCOc3ccccc3F)C2)c2ccccc12 (configuration not stated) | inactive
COc1cc(OC)cc(-c2onc(C)c2C(=O)NC(C)CCc2ccccc2)c1 (configuration not stated) | inconclusive: 10 µM [inhibitor, full curve, poor fit]
CCCN1CCC2(CCN(C(=O)Nc3ccc(Cl)cc3)CC2)Oc2ccccc21 | inconclusive: 50.1 µM [inhibitor, partial curve, poor fit]
O=C1CCC(CNC(=O)c2nc(-c3ccccc3)cc3[nH]ccc23)N1 (configuration not stated) | inactive
NCC(=O)N1CCCCCCNC(=O)CC1c1ccccc1 (configuration not stated) | inactive

Structure (SMILES) | Potency
CCOc1cccc(CNC(=O)C2CCN(c3cc(C(F)(F)F)ncn3)CC2)c1 | inconclusive: 31.6 µM [inhibitor, partial curve, poor fit]
COc1ccc(-c2noc([C@@H]3CCCN3C(=O)Cc3ccccc3)n2)cc1 | inconclusive: 28.2 µM [inhibitor, partial curve, poor fit]
CCn1ncc(N2CCCC(CC(=O)Nc3ccc(C)c(F)c3)C2)cc1=O (configuration not stated) | inconclusive: 89.1 µM [inhibitor, single point]
CC(C)CN1CCN(C(=O)c2ccc3c(c2)CC(=O)N3Cc2ccc(F)cc2)CC1 | inconclusive: 56.2 µM [inhibitor, partial curve, poor fit]
Cn1nc(C(=O)NCc2cccnc2)c2c1CN(C(=O)COc1ccccc1)C2 | inactive
O=C(CN1CC2CC(C1)[C@H]1CCCC(=O)N1C2)NCc1ccc(OC(F)(F)F)cc1 (some centres not stated) | inactive
COC(=O)CCNC(=O)C1c2ccccc2C(=O)N(Cc2ccccc2)C12CCCC2 (configuration not stated) | inactive
COCCN1CCCC[C@]2(C[C@H](C(=O)O)[C@H](c3ccco3)N2C(=O)Cc2cccs2)C1=O | inconclusive: 50.1 µM [inhibitor, partial curve, poor fit]
COc1ccccc1CN1CCCn2nc(C)c(-c3cnccc3C)c21 | active: 39.8 µM
FC(F)(F)c1cccc(C2=NOC3(CCN(Cc4ccsc4)C3)C2)c1 (configuration not stated) | inconclusive: 50.1 µM [inhibitor, partial curve, poor fit]
O=C(Nc1ccc([C@H]2OCC(=O)N(C3CCOCC3)[C@@H]2CO)cc1)C1CCC1 | inactive
CC1(Cc2ccc3c(c2)OCO3)CCCN(C(=O)c2ccc3n[nH]nc3c2)C1 (configuration not stated) | inconclusive: 50.1 µM [inhibitor, partial curve, poor fit]
O=C(NC1CCCc2c1[nH]c1ccccc21)c1cccnc1 (configuration not stated) | inconclusive: 39.8 µM [inhibitor, full curve, poor fit]
CC(C)C1CN(C(=O)c2ncoc2C2CC2)CCCN1Cc1ccc(F)cc1 (configuration not stated) | inconclusive: 31.6 µM [inhibitor, partial curve, poor fit]
COCCn1c(=O)c(C(=O)NCCc2ccc(OC)cc2)nc2cccnc21 | inactive
c1ccc(CN2CCNc3cc(Nc4ccc(N5CCOCC5)cc4)ncc3C2)cc1 | active: 89.1 µM
CN(C)CCOc1cccc2c1c(NC(=O)c1ccn[nH]1)nn2-c1ccc(F)cc1 | inconclusive: 44.7 µM [inhibitor, full curve, poor fit]
O=C1NCc2ccccc2CC12CCCN(Cc1ccc(Cl)s1)C2 (configuration not stated) | inconclusive: 79.4 µM [inhibitor, partial curve, poor fit]
O=[S+]([O-])(c1ccccc1)N1CCn2c(nnc2C2CCCNC2)C1 (configuration not stated) | inconclusive: 35.5 µM [inhibitor, single point]
O=C(CC1CCCN(c2cn[nH]c(=O)c2)C1)N1CC=C(c2ccccc2)CC1 (configuration not stated) | inconclusive: 50.1 µM [inhibitor, partial curve, poor fit]
O=C(NCCCc1ccccc1)c1cc(-c2cccs2)c2cccn2n1 | inconclusive: 50.1 µM [inhibitor, partial curve, poor fit]
